Results on 22 molecules are retold here after publication PMC12136788.

The list shows a part of the results.

The labels stand for the following.
T1: UNK ZnF1-3 (human, UniProt Q9C0B0 31-174)
T1 sequence: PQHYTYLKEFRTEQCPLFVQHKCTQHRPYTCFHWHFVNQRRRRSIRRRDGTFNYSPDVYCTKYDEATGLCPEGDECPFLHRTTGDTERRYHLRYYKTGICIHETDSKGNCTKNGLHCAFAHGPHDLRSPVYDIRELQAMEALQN

B1: 62406522_62406890_269_CDS_ENSG00000089597_ENST00000356638|human|control|control (ssRNA)
RNA: GGGAGUUCUACAGUCCGACGAUCAUCAAUCCUGAACCGAGUCAUGUUCUUUUGAAGCCCCUGAAGCUCUAGCACCAGCAACACCUUGGUGACCUCAUGGAUCAGAUGGACCGUGAGGGAAUCAGGACCAAGCUGUAGAGAGUCCAACAGAGGAUUGAGCAUCA
B2: chr16:94690093:94690094:+_ENSMUSG00000040785_ENSMUST00000117648|mus_hu|mus_mus_mus_hu_True|8_48 (ssRNA)
RNA: GGGAGUUCUACAGUCCGACGAUCGGGCUGGGAUGACGGACACACAGCCUCGAUUCCAGGGGGAAAAAGUCUUAGUCGAUACUAAUUUAAAAAGUAUAAUGAUUUUUGAAAAUCAGAUUACAUCUAUUUGAAUCAUAAAGCAAACAACAGAGGAUUGAGCAUCA
B3: chr4:114257803:114257804:+_ENSG00000145362_ENST00000514960|hu_hu|motif|central (ssRNA)
RNA: GGGAGUUCUACAGUCCGACGAUCGGAAUGGUCAUGGUAAUUGGUUUGUGGAAUUUUCUUCUUCUAGGUUCCAAAGUGACGGUAGGGCUGAAGGUAGCUUUGUUGCCUAGGAUCUUCUUAACCAGCUCACUGUGCAUAGGUUGACAACAGAGGAUUGAGCAUCA
B4: chr1:45868982:45868983:+_ENSMUSG00000025995_ENSMUST00000027139|mus_hu|motif|central (ssRNA)
RNA: GGGAGUUCUACAGUCCGACGAUCAGAAGUGCAGAAUAAAUCUCCUGCAGGCGAGACUGAGAUAUGUUCAAUAGUAGCUCCGGAACGCGGGAGAAACUCCUUAUUCUUCUCUGUUGCAUCGCGCCACUCUACAAGUACAGAUUCCAACAGAGGAUUGAGCAUCA
B5: chr10:126975481:126975482:-_ENSMUSG00000040249_ENSMUST00000049149|mus_hu|FALSE|FALSE (ssRNA)
RNA: GGGAGUUCUACAGUCCGACGAUCCCAGCCCUGGGAACCUCGGUGGGGGCCCUGGAGACAGGGAGGGCCUGUCUGGGAGGGGGGUUGAGCAUGGCCAUCUCAUAGGUGCCCCUGGAGUUGGGGCUGGGGUUUGGGGUGGCCUCCCAACAGAGGAUUGAGCAUCA
B6: chr9:113799110:113799111:+_ENSMUSG00000033392_ENSMUST00000111838|mus_hu|motif|central (ssRNA)
RNA: GGGAGUUCUACAGUCCGACGAUCCAGCAGUACAAACAACCAAUCUUGAAGAUCAUCUUUGUGGACUUGUAUGAAAUCCACGGGAGUCUCCAAAAACAUGCUGAAUACUCUCUUGCCAUGAGGGUCAGCAAACAUUCUUGUGAACAACAGAGGAUUGAGCAUCA
B7: chr2:202488911:202488912:-_ENSG00000155755_ENST00000286196|hu_mus|hu_hu_hu_mus_False|28_98 (ssRNA)
RNA: GGGAGUUCUACAGUCCGACGAUCAUUGAAACAUUUUCAUAAUAUUGCAGUAGCAUUUCAGCAUUAUGUAACAAAAGCUCAAUUGUAAAUACAUGUAUCUUAUAAAAAUAAAAAUACAAACACGAGUGGGGAGCGCAGGCGCCACAACAGAGGAUUGAGCAUCA
B8: chr1:178670160:178670161:-_ENSMUSG00000057335_ENSMUST00000057037|mus_mus|motif|central (ssRNA)
RNA: GGGAGUUCUACAGUCCGACGAUCCUGAGGCCUCGAGUCAACAGACCGACCGUUGUUUCCUUCUGGUGUUUUAGAAUGAACGGAUGGAGGUAUCUUUCGGAAGUUGAGACUUUCAUCAAAAACACGAUCAACCAACUCUUCUCUCAACAGAGGAUUGAGCAUCA
B9: chr4:76721835:76721836:+_ENSG00000138768_ENST00000264904|hu_hu|motif|central (ssRNA)
RNA: GGGAGUUCUACAGUCCGACGAUCUUUGGCUGGGGUUUCUGAGAUGCUCUGGAAUACAACUCAUGUUUGCUAAUAAAUCCGGGUUUCUCUAUGAAAUUCUCUUUGCCAAUCCUCUUCUCAAUCAGUUGUUUUAGCUUCUCUUUCCAACAGAGGAUUGAGCAUCA
B10: chr9:122046571:122046572:+_ENSMUSG00000038145_ENSMUST00000120173|mus_hu|FALSE|FALSE (ssRNA)
RNA: GGGAGUUCUACAGUCCGACGAUCUUGAAAUUUGUUGCUGAACCCAAAGUCUGUCAACUUUACAAGACCUUGUUUUUCAAAGAAGACUACAUUCUCUGGUUUUAAGUCUCUGUGAACCACAUGGAGUUUAUGGCAAUAAGAUAUCAACAGAGGAUUGAGCAUCA
B11: chr8:26941818:26941819:-_ENSMUSG00000031575_ENSMUST00000166078|mus_hu|motif|central (ssRNA)
RNA: GGGAGUUCUACAGUCCGACGAUCACUAGUAGACACAGCACUGCUCUGUUUUUGGUUGUCAUAAGCAGGACCAAUGUUACGGAGGUCCUGAUCCAAAAGUCCAAAUUUGGGGUAAUCUUCUUCUGGAUCUUUACUGCCUGGAUCCAACAGAGGAUUGAGCAUCA
B12: chr2:32640565:32640566:+_ENSG00000115760_ENST00000421745|hu_hu|FALSE|FALSE (ssRNA)
RNA: GGGAGUUCUACAGUCCGACGAUCGCAUGUCCGCAGUCCUACCAACAAAUGAAUUCCGUCAGCACAAGGAGUUAUUGAGUCUAUACAAAGAUUCUCCUCCUCUGCAAACUUUGGCAGCCUCAAGCACUGAACCAAAGUCCCAGGCAACAGAGGAUUGAGCAUCA
B13: chr14:57741442:57741443:+_ENSG00000053770_ENST00000261558|hu_mus|FALSE|FALSE (ssRNA)
RNA: GGGAGUUCUACAGUCCGACGAUCAACUUUCCAGGCUGGCUGUUUUUGCGGCUGAGUCACAGAUACGGAAUUAAUGCUAUUCAGUGAAUUCUGCAAGUUAGCAUCCAAUAAAGUACCCAAAGGACAAGCCUGUAGAAGCAAGUCCAACAGAGGAUUGAGCAUCA
B14: chr12:121861850:121861851:+_ENSG00000170633_ENST00000361234|hu_hu|motif|central (ssRNA)
RNA: GGGAGUUCUACAGUCCGACGAUCCAGCAACAAUGUGGAAACUUACAUUCAUCAAAUGUUAGCAUUUAAAAUAUACAUGACGGAUAAAGUGAACAUUCAGAGGAGCCACUGCUCAGCAUGUUCCAUGUCGGCCACUUGUGGACACAACAGAGGAUUGAGCAUCA
B15: chr3:41268740:41268741:+_ENSG00000168036_ENST00000349496|perfect_dup|motif|central (ssRNA)
RNA: GGGAGUUCUACAGUCCGACGAUCCACUCUGCUUGUGGUCCACAGAAGCUUCUCAUAAGUGUAGGUCCUCAUUAUGUUUACGGAGGCUUGGGGUCCACCACUGGCCAGAAUGAUGAGCUUGCUCUCUUGAUUGCCAUAAGCUAACAACAGAGGAUUGAGCAUCA
B16: 107755969_107762763_258_5pUTR_ENSMUSG00000032582_ENSMUST00000035201|mouse|control|control (ssRNA)
RNA: GGGAGUUCUACAGUCCGACGAUCCAACAUGACUGCUGCAGAAAAAGCUUUCACCCAGUCCGAAAAGGUCCUGUUCUGUUAGCAGAUCGAGAAUCCCCCCACAUCUCUUUCUAUGUCAAGAAAGCUUCAAUAAGUAGAUCUUUUCAACAGAGGAUUGAGCAUCA
B17: chr6:38652254:38652255:-_ENSG00000124767_ENST00000373365|hu_hu|hu_hu_hu_mus_False|58_78 (ssRNA)
RNA: GGGAGUUCUACAGUCCGACGAUCCGAGAACUUCAUAGCAGGGAAGUCAAGCUUCUGGAUUAGCGUCAGUCCAAGAACUCUAGUAUAAAAAUCCAGGGACUUCUUAGGAUCCUUAAUUCUUAGCAUCGUUUGCUGCAGUAGAAACAACAGAGGAUUGAGCAUCA
B18: chr1:130270616:130270617:-_ENSMUSG00000026356_ENSMUST00000027602|mus_mus|motif|central (ssRNA)
RNA: GGGAGUUCUACAGUCCGACGAUCGUAAUGAUAAUUAAAGGCCAUUUCAAUAUCCAAACCAACAAAUUCAGUCAGAUGUCGGUGGGUAUUGGAGUCUUCAGCUCUGAAAACUGGUCCAAUGCAGAAAACCUUCUCAAAAUCAGCCAACAGAGGAUUGAGCAUCA
B19: chrX:69798090:69798091:-_ENSMUSG00000031343_ENSMUST00000055966|mus_mus|mus_mus_mus_hu_False|38_58 (ssRNA)
RNA: GGGAGUUCUACAGUCCGACGAUCAAGUCCCCGGGUUCUUGUCGUCUUGAUUCCCCUUGACCAGUGGUUCCAGGGAGAAUACUAAUCAGGAAAAGAAGUACAACUCUGGUCAUGUAACAGUGACUUGUUUGUGUGAUUAUCAUCCAACAGAGGAUUGAGCAUCA
B20: 111050710_111050830_356_CDS_ENSMUSG00000021700_ENSMUST00000167824|mouse|control|control (ssRNA)
RNA: GGGAGUUCUACAGUCCGACGAUCCUCAUUUUUGAAUACAGUUUUUACUUUGAAAUCGAUGCCAACCGUGCUGACGAAUGCAGAUGUAAAGGAAUCGUCGGCAUAACGGAACAGGAAAGAUGUUUUGCCCACGCUGCUAUUGCCCAACAGAGGAUUGAGCAUCA
B21: chr12:103221452:103221453:+_ENSMUSG00000041781_ENSMUST00000047357|mus_hu|FALSE|FALSE (ssRNA)
RNA: GGGAGUUCUACAGUCCGACGAUCAUAAACAGGAAUGGUUGCAUAGAUAGCACAGUUCAGACCCAACUUUCCGACAGCAUACGGGAGGGCACCAAGGUGGAGAGGAUCAGGGUGAGACAACAGCACUGCAUCAAUCUGGUGAACCAACAGAGGAUUGAGCAUCA
B22: 61985779_61985899_2350_3pUTR_ENSMUSG00000021929_ENSMUST00000022496|mouse|control|control (ssRNA)
RNA: GGGAGUUCUACAGUCCGACGAUCAAAAAAUUAGGUAUAAUGGCGAAAGCAUUACCAUUGAUAUCUAAAGCUCUUCCUCCAACCCUGGCUUCUGAGGCAGAUAAUAAACACAUCAAUUAAUGGUAGGUGAAGUACAGUUUUAAACAACAGAGGAUUGAGCAUCA

This test addresses T1, UNK ZnF1-3. In words: nsRBNS (natural sequence RNA bind-n-seq); RBNS binding buffer (assumed for nsRBNS): 25 mM Tris pH 7.5, 150 mM KCl, 3 mM MgCl2, 0.01% Triton X-100, 500 ug/ml BSA, 20 U/ml SUPERase-In, 4 C; UNK is unkempt and MSI1 is Musashi-1; names of the RNAs are library labels; protein concentration not given here; high values mean tight binding.
In turn, B1 showed a binding signal of 1.07 enrichment R.
For B2 the value was 0.599 enrichment R; for B3, 0.709 enrichment R.
Molecule B4 had a binding signal of 0.787 enrichment R.
For B5, the binding signal amounted to 1.15 enrichment R.
For B6 the value was 0.87 enrichment R.
For B7 the value was 1.04 enrichment R.
For B8 the value was 1.04 enrichment R; for B9, 0.541 enrichment R; for B10, 0.569 enrichment R.
For B11, the binding signal is 0.636 enrichment R.
B12 returned a binding signal of 0.791 enrichment R.
For B13 the value was 0.954 enrichment R; for B14, 1.31 enrichment R; for B15, 1.29 enrichment R.
B16 returned a binding signal of 0.949 enrichment R.
For B17 the value was 1.14 enrichment R.
For B18 the value was 1.18 enrichment R; for B19, 0.697 enrichment R.
Take B20: the binding signal stood at 0.91 enrichment R.
For B21 the value was 1.88 enrichment R; for B22, 1.14 enrichment R.
